In patent US20090123474A1, “COMBINATION OF ANGIOPOIETIN-2 ANTAGONIST AND OF VEGF-A, KDR AND/OR FLTL ANTAGONIST FOR TREATING CANCER” (ASTRAZENECA AB, priority 2005, published 2009):

Molecular target: T1, Angiopoietin-2 binding to Tie-2 (Homo sapiens, UniProt O15123)
T1 construct: purchased R&D Systems, Inc. BT623 (Angiopoietin-2, biotinylated); 313-TI-100 (Tie-2/Fc)
T1 sequence (O15123 19-496): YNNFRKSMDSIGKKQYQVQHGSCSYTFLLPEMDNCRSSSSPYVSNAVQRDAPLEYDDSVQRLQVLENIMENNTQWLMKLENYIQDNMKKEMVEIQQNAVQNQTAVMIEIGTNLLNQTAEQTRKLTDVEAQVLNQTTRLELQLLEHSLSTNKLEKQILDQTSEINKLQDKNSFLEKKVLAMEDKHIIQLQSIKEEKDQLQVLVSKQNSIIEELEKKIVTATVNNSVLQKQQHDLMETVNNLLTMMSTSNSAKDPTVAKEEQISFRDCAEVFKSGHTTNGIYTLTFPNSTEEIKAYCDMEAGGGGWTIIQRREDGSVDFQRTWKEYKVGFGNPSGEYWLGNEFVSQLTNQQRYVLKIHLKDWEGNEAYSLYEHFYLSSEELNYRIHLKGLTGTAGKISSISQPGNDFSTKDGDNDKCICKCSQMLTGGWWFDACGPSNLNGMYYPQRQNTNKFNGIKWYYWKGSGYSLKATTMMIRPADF
Experiment: Competitive binding assay (modified ELISA): inhibition of Angiopoietin-2 binding to Tie-2
Protocol: As discussed above, Angiopoietin-2 exerts its biological effect by binding to the Tie-2 receptor. Monoclonal antibodies that inhibited Angiopoietin-2/Tie-2 binding were identified by a competitive binding assay using a modified ELISA. The mAb used were products of micro-purification from 50 ml of exhaustive supernatants of the hybridoma pools that were specific for Angiopoietin-2 (see above). 96-well Nunc Immplates™ were coated with 100 μl of recombinant human Tie-2/Fc fusion protein (R&D Systems, Inc., Cat. No. 313-TI-100) at 4 μg/ml by incubating overnight at 4° C. The plates were washed four times using Phosphate Buffer Saline (PBS) with a Skan™ Washer 300 station (SKATRON). […]
Biotinylated recombinant human Angiopoietin-2 (R&D Systems, Inc. Cat. No. […] Bound biotinylated Angiopoietin-2 was then detected using 100 μl/well of Streptavidin-HRP conjugate at 1:200 by incubating at room temperature for half an hour. After washing twice, the bound Streptavidin was detected by HRP substrate (R&D Systems, Cat. No. DY998). […] The light absorbance at 450 nm was determined by a Spectramax Plus reader. […]
To quantitate the inhibitory activities of the mAb on Angiopoietin-2 binding to Tie-2, the titer was determined for purified mAbs from the top candidates using a competitive binding assay. […] The maximal inhibition (efficacy) and IC50 (potency) were calculated by the software.

B1: mAb 5.101.1: fully human anti-Angiopoietin-2 monoclonal antibody, variable regions SEQ ID NO: 33-36 (antibody, listed as Homo Sapiens, listed as Homo sapiens, V domains shown)
VH: [left out - about 100 residues]DGGSIPVSGHFDYWGQGTLVTVSSA
VL: EIVMTQSPATLSVSPGERATLSCRASQSLISNLAWYQQKPGQAPRLLIFGASTRATGIPARFSGSGSGTEFTLTISSLQSEDFAVYYCHQYNNWWTFGQGTKVEIKR
EC50 (potency, competitive binding of Angiopoietin-2 to Tie-2, purified mAb): 0.3762 µg/mL | Efficacy* (ratio of bound Angiopoietin-2 with mAb (30 μg/ml) versus without mAb): 0.3639
